Results reported in the supplement of paper PMC9334596.
Several values for one entry are separate records, joined by “and”; a condition that tells them apart may be missing. Equal values may be shown once. The full ranking holds about 5,300 compounds; the median of “PER2::LUC luminescence relative to vehicle control” is about 0.96, and the highest 2% start at about 1.3. This is one part of the list.

Tested on: mPer2Luc MEF
Assay: PER2::LUC luminescence relative to vehicle control (fold of vehicle); higher = higher PER2::LUC reporter signal
Conditions: 10 µM
How it was run: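 Each value gives PER2::LUC luminescence as fold of vehicle control, measured with the ONE-Glo luciferase assay system in mouse embryonic fibroblasts carrying the mPer2Luc reporter. Cells grown in DMEM with 10% FBS at 37 °C and 5% CO2 were seeded at ~3000 per well in 384-well plates. Library compounds were added at 10 μM 48 h later, and readings were taken 24 h and 30 h after treatment.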

Structure (SMILES)	PER2::LUC luminescence (time after treatment 24 h)	PER2::LUC luminescence (time after treatment 30 h)
CC[C@H]1OC(=O)C[C@@H](O)[C@H](C)[C@@H](O[C@@H]2O[C@H](C)[C@@H](O)[C@H](N(C)C)[C@H]2O)[C@@H](CCN2CCCCC2)C[C@@H](C)C(=O)/C=C/C(C)=C/[C@@H]1CN1CCCCC1	0.885	0.882
NCCNC(=O)c1ncsc1-c1cccc(F)c1	0.92	0.864
Cc1cc(CC(=O)O)n(C)c1C(=O)c1ccc(Cl)cc1	0.936	1.05
CCCCCCCCCCCCCCCC(=O)O[C@@H]1[C@@H](O)[C@@H](O)[C@@H]([C@H](NC(=O)[C@@H]2C[C@@H](CCC)CN2C)[C@H](C)Cl)O[C@@H]1SC	1.01	0.969
COC(=O)CC[C@@H](C)[C@H]1CC[C@H]2[C@@H]3[C@H](O)C[C@@H]4C[C@H](O)CC[C@]4(C)[C@H]3C[C@H](O)[C@]12C	0.817	0.831
COc1c(O)cccc1O	0.979	0.948
CC(=O)Nc1ncc([N+](=O)[O-])s1	1.33 and 1.09	0.865 and 1.09
O=C(NCCCNc1nc(Nc2cccc(CN3CCOCC3)c2)ncc1C1CC1)C1CCC1	0.596	0.603
CC12CCC(CC1)C(C)(C)O2	1.01	0.888
O=C1CN(/N=C/C=C/c2ccc([N+](=O)[O-])o2)C(=O)N1	1.04	1.01
C[C@H](CCC(=O)O)[C@H]1CC[C@H]2[C@@H]3CC[C@@H]4C[C@H](O)CC[C@]4(C)[C@H]3C[C@H](O)[C@]12C	1.04	1.09
NC1(C(=O)O)CC(C(=O)O)C1 (stereo unspecified)	1.01	1.04
CC(C)C[C@@H]1NC(=O)[C@H](CCCN)NC(=O)[C@H](C(C)C)NC(=O)[C@H](Cc2ccc(O)cc2)N[C@@H](CCC(=O)O)C(=O)N[C@@H](CC(N)=O)C(=O)[C@@H](Cc2ccccc2)NC(=O)[C@H](Cc2ccccc2)NC(=O)[C@@H]2CCCN2C(=O)[C@@H](Cc2ccccc2)NC1=O	0.303	0.445
COc1cc(-c2cn(C3CCc4c(F)cccc4N(CC(F)(F)F)C3=O)nn2)ccc1-n1cnc(C)c1 (stereo unspecified)	0.819	0.835
CC#CCOC(=O)C1=CCCN(C)C1	0.881	1
CCC(=O)Oc1ccc2c(c1)CCC1C2CCC2(C)C(OC(=O)CC)CCC12 (stereo unspecified)	1.04	1.05
CC(C)=CCC/C(C)=C/CC/C(C)=C/CSCC(=O)O	1.06	0.985
COc1ccc2cc(C(C)C(=O)O)ccc2c1 (stereo unspecified)	0.919	1.08
Nc1ncnc2c1c(I)cn2[C@@H]1O[C@H](CO)[C@@H](O)[C@H]1O	0.73	0.848
Nc1ncnc2c1nc(Sc1ccc(Cl)cc1)n2C1OC2COP(=O)(O)O[C@@H]2[C@@H]1O (stereo partly specified)	1.11	1.04
CC(=O)Nc1nc(C)c(-c2ccc(Cl)c(S(=O)(=O)NCCO)c2)s1	0.989	0.915
C[C@@H](Nc1cc(NS(=O)(=O)N2CCC2)nc(SCc2cccc(F)c2F)n1)[C@@H](O)CO	1.03	1
COc1cc(-c2coc3cc(O[C@@H]4O[C@H](CO)[C@@H](O)[C@H](O)[C@H]4O)c(OC)c(O)c3c2=O)cc(O)c1OC	0.773	1.31
CCCCN1CCCC1CNC(=O)c1cc(C#N)c2ccccc2c1OC (stereo unspecified)	1	1.58
O=c1c(O)c(-c2ccccc2)oc2cc(O)ccc12	1.13	1.18
O=c1c(-c2ccc(O)cc2)coc2cc(O[C@@H]3O[C@H](CO)[C@@H](O)[C@H](O)[C@H]3O)ccc12	1.25	1.39

Structure (SMILES)	PER2::LUC luminescence (time after treatment 24 h)	PER2::LUC luminescence (time after treatment 30 h)
CC(C)(O)c1ccccc1Cc1ccccc1	0.709	1.18
COc1ccc(C2CNC(=O)C2)cc1OC1CCCC1 (stereo unspecified)	0.93	0.868
O=c1c(O)c(-c2ccc(O)cc2O)oc2cc(O)cc(O)c12	0.955	0.963
CC[N+]1(C)C2CCC1CC(OC(=O)C1CCC(C(=O)OC3CC4CCC(C3)[N+]4(C)CC)(c3ccccc3)c3ccccc31)C2 (stereo unspecified)	0.898	0.961
CC(/C=C/c1cccc(Oc2ccc(F)cc2)c1)N(O)C(N)=O (stereo unspecified)	1.16	0.926
OC[C@H]1O[C@@H](Oc2cc(O)cc(/C=C/c3ccc(O)cc3)c2)[C@H](O)[C@@H](O)[C@@H]1O	1.22	1.07
CO/N=C(\C(=O)N[C@@H]1C(=O)N2C(C(=O)[O-])=C(C[n+]3ccc(N)n3CCO)CS[C@H]12)c1csc(N)n1	1.12	1.1
CCOC(=O)[C@H](CCc1ccccc1)N[C@H]1CS[C@H](c2cccs2)CN(CC(=O)O)C1=O	1.15	1.18
NC(=O)c1ccc([N+](=O)[O-])cc1Cl	0.912 and 0.987	1.06 and 0.911
O=C1OCCN1/N=C/c1ccc([N+](=O)[O-])o1	1.03	1.23
O=C(/C=C/C(=O)Oc1ccccc1C(=O)O)Oc1ccccc1C(=O)O	1.02	0.893
Oc1ccc([C@@H]2CNCc3sccc32)cc1O	0.871	0.847
CN(C)N(C)C(=O)[C@@]1(Cc2ccccc2)CCCN(C(=O)[C@@H](Cc2c[nH]c3ccccc23)NC(=O)C(C)(C)N)C1	1	0.972
CCOC(=O)Oc1c(OC)cc(C(=O)O[C@@H]2C[C@@H]3CN4CCc5c([nH]c6cc(OC)ccc56)[C@H]4C[C@@H]3[C@H](C(=O)OC)[C@H]2OC)cc1OC	1.03	1.07
Cc1c(O)c(=O)ccn1C	1 and 1.13	0.859 and 1.1
CC(C)C[C@H](NP(=O)(O)O[C@H]1O[C@H](C)[C@@H](O)[C@H](O)[C@@H]1O)C(=O)N[C@@H](Cc1c[nH]c2ccccc12)C(=O)O	1.03	1.1
O=S(=O)(O)c1cc(O)ccc1O	1.05	1.01
Cc1ccc([N+](=O)[O-])cc1S(=O)(=O)N(C)C	0.523	0.788
O=C1C[C@@H](c2ccc(O)cc2)Oc2cc(O)cc(O)c21	1.46	1.25
CCC(=O)O[C@]1(C(=O)CCl)[C@@H](C)C[C@H]2[C@@H]3CCC4=CC(=O)C=C[C@]4(C)[C@@]3(F)[C@@H](O)C[C@@]21C	0.711	1.08
c1ccc([C@H]2CN3CCSC3=N2)cc1	0.959	0.727
N[C@@H](CCCP(=O)(O)O)C(=O)O	1.02	1.04
COc1cc2c(Oc3ccc4[nH]c(C)cc4c3F)ncnc2cc1OCCCN1CCCC1	0.109	0.081
C[C@H]1CNCCCN1S(=O)(=O)c1cccc2cncc(F)c12	0.787	0.723
O=C(O)c1cc(-c2ccccc2)nc2ccccc12	0.91	1.12
N[C@@H](Cc1ccccc1)C(=O)O	0.855	0.872

Structure (SMILES)	PER2::LUC luminescence (time after treatment 24 h)	PER2::LUC luminescence (time after treatment 30 h)
CC(=O)O[C@]1(C(C)=O)CC[C@H]2[C@@H]3C[C@H](C)C4=CC(=O)CC[C@]4(C)[C@H]3CC[C@@]21C	0.862 and 0.706	1.06 and 1.03
CC(C)NCC(O)c1ccc2ccccc2c1 (stereo unspecified)	1.11 and 0.911 and 0.893	0.959 and 0.86 and 0.832
CC(C)(C)c1nc2c3cc[nH]c(=O)c3c3cc(F)ccc3c2[nH]1	0.802	0.906
Nc1nc2c(nc(Br)n2C2OC3COP(=O)(O)O[C@@H]3C2O)c(=O)[nH]1 (stereo partly specified)	0.859	0.943
N[C@H](C(=O)O)[C@H](O)c1ccc(O)c(O)c1	0.879	0.966
CC(=O)O[C@@H]1C[C@@]23C[C@@]24CC[C@H](O[C@@H]2OC[C@@H](O)[C@H](O)[C@H]2O)C(C)(C)[C@@H]4CC[C@H]3[C@]2(C)C[C@@H]3O[C@]4(C[C@@H](C)[C@@H]3[C@@]12C)O[C@H](O)[C@@]1(C)O[C@@H]41	0.888	0.982
CN(C)c1nc(N(C)C)nc(N(C)C)n1	1.05	1
COc1cc2c(cc1-c1c(C)noc1C)ncc1[nH]c(=O)n([C@H](C)c3ccccn3)c12	0.115 and 0.124	0.147 and 0.112
CCCCCCCCCCCCCCCCCC(=O)OC(CC(=O)O)C[N+](C)(C)C (racemic)	0.909	0.786
O=C1c2ccc(Nc3ccc(F)cc3F)cc2CCc2ccc(OC[C@H](O)CO)cc21	0.669	0.939
CCCNCC(O)COc1ccccc1C(=O)CCc1ccccc1 (stereo unspecified)	0.74 and 0.541	0.72 and 0.75
NC(=O)C(c1ccccc1)(c1ccccc1)[C@@H]1CCN(CCc2ccc3c(c2)CCO3)C1	0.757	0.849
COc1cc([C@@H]2c3cc4c(cc3[C@@H](O[C@@H]3O[C@@H]5CO[C@@H](C)O[C@H]5[C@H](O)[C@H]3O)[C@H]3COC(=O)[C@H]23)OCO4)cc(OC)c1O	0.658	0.601
COc1ccccc1OCC(O)CN1CCN(CC(=O)Nc2c(C)cccc2C)CC1 (stereo unspecified)	0.76 and 0.89	0.855 and 0.722
O=[N+]([O-])c1cccc2cn[nH]c12	0.997	0.936
O=C(Nc1ccccc1)Nc1ccccc1	1.57	1.44
CN(C)C(=S)NN=C(c1ccccn1)c1ccccn1	1.09	1.04
CNS(=O)(=O)C[C@H]1CC[C@H](N(C)c2[nH]cnc3nccc2-3)CC1	0.907	0.797
COc1cc(/C=C(\C#N)C(=O)Nc2nnc(C(F)(F)F)s2)ccc1OCc1ccc(C(F)(F)F)cc1C(F)(F)F	0.149	0.165
CNC(=S)NCCSCc1[nH]cnc1C	1.06	1.06
C[C@H]1C[C@@H]2[C@H]([C@@H](O)C[C@@]3(C)[C@H]2CC[C@]3(O)C(=O)CO)[C@@]2(C)C=CC(=O)C=C12	0.729	1.16
O=C(O)c1cc(C(=O)O)c(C(=O)N(Cc2cccc(Oc3ccccc3)c2)[C@H]2CCCc3ccccc32)cc1C(=O)O	1.06 and 0.623	0.885 and 0.626
CCOc1c2c(c(OCC)c3ccccc13)C(=O)N(c1ccc(CC(=O)NS(=O)(=O)c3ccccc3)cc1)C2	0.997	1.02
CNCC(O)c1ccc(OC(=O)C(C)(C)C)c(OC(=O)C(C)(C)C)c1 (stereo unspecified)	0.854	1.16
COc1ccc([C@]2(C#N)CC[C@@H](C(=O)O)CC2)cc1OC1CCCC1	0.83	0.929
CCN(CC)CCc1nc(-c2ccccc2)no1	0.833 and 1.1	0.938 and 1.04
